Reference: the BET-seq Pho4 binding data (Le et al. 2018)
The list shows a part of the results. The energies were worked out here from pooled read counts, against the library average; single values are noisy.

target: T1, Pho4 (S. cerevisiae) (UniProt P07270); experiment: relative binding free energy (BET-seq); higher = weaker binding; settings: reference: library average
T1 sequence: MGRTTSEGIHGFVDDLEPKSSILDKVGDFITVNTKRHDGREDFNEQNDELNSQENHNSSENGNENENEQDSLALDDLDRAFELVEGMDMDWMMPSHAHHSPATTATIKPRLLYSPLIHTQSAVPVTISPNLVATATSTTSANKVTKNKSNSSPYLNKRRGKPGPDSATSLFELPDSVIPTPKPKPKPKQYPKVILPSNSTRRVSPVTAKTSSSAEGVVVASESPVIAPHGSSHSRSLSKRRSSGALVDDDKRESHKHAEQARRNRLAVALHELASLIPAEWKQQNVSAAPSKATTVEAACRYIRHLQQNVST

Sequence | relative binding free energy [kcal/mol]
AGTGTCACGTGGATTC | 0.01
GGGAACACGTGAAGTA | 0.46
TTGGTCACGTGGGCTT | 0.08
ATTGTCACGTGTCTAG | 0.11
GTGCGCACGTGCGGGT | -0.13
TAAGGCACGTGGGTTA | -0.19
TGGTCCACGTGGGGCA | -0.19
CGAATCACGTGTTATG | 0.25
TTGCGCACGTGTTCAT | -0.01
ATAGTCACGTGGTCTT | -0.01
TATGACACGTGTAAGA | 0.13
GTCTTCACGTGCGGGT | 0.3
AGTAACACGTGAGTAG | 0.31
CGGTACACGTGAATGT | 0.26
TTGGACACGTGAAAGA | 0.36
TTTCTCACGTGTTGCT | 0.15
CTTGTCACGTGATGTT | 0.12
ACTTTCACGTGTTAAG | 0.29
TTGATCACGTGTCGCG | 0.13
TTTAACACGTGTCTTT | 0.01
CGTGTCACGTGATTTA | 0.13
TTGAGCACGTGTCAGG | -0.07
TACTACACGTGGGTAG | -0.03

Sequence | relative binding free energy [kcal/mol]
AGTATCACGTGTCCGG | 0.22
CTGTTCACGTGTGATG | 0.2
TCTAGCACGTGTGTTA | -0.03
GTGTTCACGTGTAGCG | 0.27
GTGTTCACGTGTCAGG | 0.21
GAGGACACGTGGAGAT | 0.17
GGTTCCACGTGATTGG | 0.17
ATTATCACGTGAGGCC | 0.45
GGCTGCACGTGGATGT | 0.14
TATTGCACGTGCAGAG | -0.04
GGAAACACGTGTTTTG | -0.11
CAGGTCACGTGCGTTA | 0.14
TACGTCACGTGAGTTA | 0.24
GAGATCACGTGGTGTG | 0.14
GGACGCACGTGTTGTT | -0.09
CAGTGCACGTGGAGTT | 0.04
TATGGCACGTGGAGGA | -0.11
AGGCGCACGTGGGTAG | -0.15
TTCTACACGTGTGGAG | 0.15
AAGTCCACGTGGGGTT | -0.06
GTATTCACGTGAAGAG | 0.31
TTGGGCACGTGAGGAG | 0.21
GTGGTCACGTGATGGT | 0.3

Sequence | relative binding free energy [kcal/mol]
TTTGGCACGTGTCACT | -0.09
GGTGGCACGTGATAAG | 0.07
GGTCTCACGTGTGTAT | 0.27
ATGGGCACGTGTTGTC | -0.14
GGAATCACGTGCTGTG | 0.23
GTGTACACGTGATTCT | 0.33
ATTAACACGTGCTTGT | -0.08
GTGTTCACGTGAATCT | 0.36
AGAGACACGTGTTGTT | 0.09
CTGTACACGTGGGGCT | -0.06
TGTATCACGTGTACTA | 0.21
TATCGCACGTGAGGGT | 0.11
GGCAACACGTGGGGCG | -0.05
GGCAGCACGTGGTAGG | -0.05
CGTAGCACGTGTGTTA | -0.14
GAGTTCACGTGTTCGT | 0.36
TAGGTCACGTGGCATA | 0.04
AAGTACACGTGGCGTT | -0.08
TGGTGCACGTGTATTA | 0
GGTCTCACGTGTGTCG | 0.19
TTAGACACGTGGGGCT | -0.15
TGGGGCACGTGGTCGT | -0.18
AATAGCACGTGTTGTA | -0.05

Sequence | relative binding free energy [kcal/mol]
GGGTGCACGTGAGTCA | 0.16
AAGGACACGTGTAGGA | -0.01
AGTTACACGTGTTATA | 0.11
TAATTCACGTGTATGA | 0.28
ATGATCACGTGGGACG | 0.1
TGGATCACGTGACTGT | 0.32
GCATTCACGTGGGAGT | 0.15
GATGTCACGTGGTGCG | 0.11
TGCGTCACGTGTTGGT | 0
CTTGGCACGTGAGGAT | 0.01
TTTCTCACGTGATATG | 0.29
TAGGTCACGTGGTTTA | 0.06
TTGTTCACGTGAGCGT | 0.27
TCTCTCACGTGTGTTT | 0.25
AGTTGCACGTGGCTGA | -0.02
TTCATCACGTGTTGGC | 0.13
GAATGCACGTGCAGGT | 0
TCGATCACGTGGTAAG | 0.18
GGTCCCACGTGTGGTA | 0.07
TTTTTCACGTGATATA | 0.18
TGAATCACGTGGATTA | 0.3
TGAGTCACGTGGTTTT | 0.16
GTTAGCACGTGGACTT | 0.04

Sequence | relative binding free energy [kcal/mol]
TGATTCACGTGTGTCA | 0.21
ATGATCACGTGGGTTG | -0.14
GTTTTCACGTGCTGCT | 0.33
TCGGCCACGTGGTGTT | -0.2
GAGGTCACGTGAACGG | 0.39
AGCTCCACGTGGTTGG | 0.05
AGGGTCACGTGGAGCT | 0.05
ACAGGCACGTGTTTGG | -0.13
CGGACCACGTGTGTGG | -0.03
ATAGGCACGTGCGGGC | -0.11
GGGCACACGTGTTTGG | 0.04
TTTCGCACGTGGTTTT | -0.13
TAAGACACGTGGTTTT | 0.05
CTTGGCACGTGTCGCT | -0.06
CGGTGCACGTGGGGCA | -0.18
TTTTACACGTGCAGAT | 0.19
GGCTCCACGTGTGGGT | 0.04
TGGTCCACGTGGCTAG | -0.04
AGGGGCACGTGGTGTC | -0.21
TGTGTCACGTGTTGAG | 0.16
ATCTGCACGTGTTGCG | 0.1
AGTAACACGTGTATGT | -0.01
GGTAACACGTGTTTGC | 0.06
